According to PubChem BioAssay AID330 (DTP/NCI, 2004):
Toxic doses and inconclusive results are not listed. A number of entries come with more than one value. The list is limited to them. An entry can have further records. The values listed for one entry repeat one measurement in other runs, samples, wells, individuals or studies.

Test system: P388 leukemia ip, CD2F1 mice, survival T/C
Assay: NCI In Vivo Anticancer Drug Screen. Data for tumor model P388 Leukemia (intraperitoneal) in CD2F1 (CDF1) mice
Conditions: endpoint: median survival time, higher = longer survival

With `CSC(=S)S(=O)(=O)C12CC3CC(CC(C3)C1)C2` the T/C (dose: 12.5 mg/kg/injection, schedule: Q01DX009 (ip), vehicle: Klucel (hydroxypropylcellulose) (HPC)) was 107 % of control, 111 % of control, 153 % of control.

With `Nc1ncnc2c1ncn2[C@@H](C=O)O[C@@H](C=O)CO` the T/C (dose: 12.5 mg/kg/injection, schedule: Q01DX009 (ip), vehicle: other) was 86 % of control and 169 % of control.

With `COc1cc([C@@H]2c3cc4c(cc3[C@@H](OC3OC5COC(C)OC5C(O)C3O)[C@H]3COC(=O)[C@H]23)OCO4)cc(OC)c1O` (stereo partly specified) the T/C (dose: 18.0 mg/kg/injection, schedule: Q04DX003 (ip), vehicle: water) was 113 % of control and 355 % of control.

With `CCOc1ccc(C(C)c2cc3c(cc2OCC)OCO3)cc1` (stereo unspecified) the T/C (dose: 50.0 mg/kg/injection, schedule: Q01DX005 (ip), vehicle: saline with Tween-80) was 107 % of control and 171 % of control.

With `C/C=C/C=C/c1cc2cc3c(c(O)c2c(=O)[nH]1)C1(CC3)C(O)=c2c(=O)c3c(=O)cc(OC)c(=O)c=3c(=O)c2=C1O` (stereo unspecified) the T/C (dose: 0.12 mg/kg/injection, schedule: Q01DX009 (ip), vehicle: DMSO) was 98 % of control and 181 % of control.

For `CN(C)c1ccc2c(NCCCCCCNc3ccnc4cc(N(C)C)ccc34)ccnc2c1`, the T/C (dose: 25.0 mg/kg/injection, schedule: Q01DX009 (ip), vehicle: distilled water + alcohol) was 99 % of control, 177 % of control, 185 % of control.

`Nc1nc(N)c2nc(CNc3ccc(C(=O)NC(CC(=O)O)C(=O)O)cc3)cnc2n1` (stereo unspecified) was tested, and the T/C (dose: 100.0 mg/kg/injection, schedule: Q04DX003 (ip), vehicle: saline with Tween-80) was 116 % of control and 159 % of control.

For `CCCN1COC(OCC)C(C)(C)C1` (stereo unspecified), the T/C (dose: 50.0 mg/kg/injection, schedule: Q01DX009 (ip), vehicle: saline with Tween-80) was 112 % of control and 154 % of control.

For `N#Cc1c(-c2ccc(F)cc2)c(-c2ccc(F)cc2)nn(CCO)c1=O`, the T/C (dose: 50.0 mg/kg/injection, schedule: Q04DX002 (ip), vehicle: distilled water + Tween-80) was 111 % of control and 150 % of control.

In the case of `COc1ccc2cc3[n+](cc2c1O)CCc1cc2c(cc1-3)OCO2`, the T/C (dose: 100.0 mg/kg/injection, schedule: Q01DX005 (ip), vehicle: Klucel (hydroxypropylcellulose) (HPC)) is reported as 108 % of control, 152 % of control, 157 % of control.

`N=C(N)c1ccc(OCCCOc2ccc(C(=N)N)cc2Br)c(Br)c1` was tested, and the T/C (dose: 12.5 mg/kg/injection, schedule: Q01DX009 (ip), vehicle: saline) was 118 % of control and 155 % of control.
